SMILES strings stand for the structures. Over roughly 110,000 compounds, “z-score” has its median near -0.1; the highest 2% begin near 2. Some of the results follow. Activity calls are given as the source filed them.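 How the source made its calls: active means z-score in the third read window above 3 or below -3; inactive means the rest.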

These results are taken from PubChem BioAssay AID488969 (Vanderbilt High Throughput Screening Facility, 2010).

The target in this assay is Metabotropic glutamate receptor 8 (Rattus norvegicus) (UniProt P70579). Description: mGluR8 Gi/Go-coupled signaling modulation – cell-based, rat, thallium flux, HTS, primary screen (AID 488969). As to conditions: HEK293 rat mGluR8, GIRK (G protein-gated inwardly rectifying potassium channel) thallium flux, FluoZin2; at 10 µM; stronger effect = higher value; submaximal glutamate (EC20) added with thallium.
Chain of UniProt P70579 (P70579 whole entry, looked up): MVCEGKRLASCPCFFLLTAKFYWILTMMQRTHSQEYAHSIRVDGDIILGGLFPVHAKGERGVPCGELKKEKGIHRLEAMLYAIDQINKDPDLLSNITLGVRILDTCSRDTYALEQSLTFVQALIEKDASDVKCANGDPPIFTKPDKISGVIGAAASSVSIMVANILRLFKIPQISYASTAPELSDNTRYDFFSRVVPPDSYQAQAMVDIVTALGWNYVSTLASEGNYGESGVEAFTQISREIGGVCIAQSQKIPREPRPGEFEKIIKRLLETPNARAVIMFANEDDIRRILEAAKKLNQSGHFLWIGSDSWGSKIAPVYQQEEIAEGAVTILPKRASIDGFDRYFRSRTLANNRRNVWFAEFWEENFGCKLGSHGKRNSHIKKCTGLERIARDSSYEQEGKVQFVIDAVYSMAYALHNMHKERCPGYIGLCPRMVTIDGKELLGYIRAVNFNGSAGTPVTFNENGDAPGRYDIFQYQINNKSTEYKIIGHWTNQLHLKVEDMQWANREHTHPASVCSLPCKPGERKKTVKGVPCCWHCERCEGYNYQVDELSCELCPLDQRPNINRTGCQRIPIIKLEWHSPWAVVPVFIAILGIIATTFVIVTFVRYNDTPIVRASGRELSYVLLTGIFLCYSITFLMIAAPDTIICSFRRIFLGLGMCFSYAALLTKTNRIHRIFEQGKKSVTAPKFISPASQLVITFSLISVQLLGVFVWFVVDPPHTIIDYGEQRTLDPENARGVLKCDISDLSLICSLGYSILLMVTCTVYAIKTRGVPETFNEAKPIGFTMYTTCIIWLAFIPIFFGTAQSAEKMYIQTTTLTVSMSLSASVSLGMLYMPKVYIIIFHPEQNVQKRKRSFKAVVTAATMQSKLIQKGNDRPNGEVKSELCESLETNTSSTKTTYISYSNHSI
As to `Cc1nc(NCCc2ccc(F)cc2)c(C#N)c(C)c1[N+](=O)[O-]`, the z-score was -0.205.

`O=C(Cc1cccc2ccccc12)N/N=C1\CCCc2ccccc21` yielded a z-score of 0.00286.

The compound `COC(=O)c1ccc(NC(=O)c2ccccc2NS(=O)(=O)c2ccccc2)cc1` registered a z-score of -0.484.

For the compound `CC(=O)N1CCc2cc(S(=O)(=O)CCC(=O)N3CCN(C(=O)c4ccco4)CC3)ccc21`, the z-score was determined as 0.0829.

`CCN=C1S/C(=C\c2ccc(N3CCOCC3)cc2C)C(=O)N1CC` displayed a z-score of 0.908.

As to `CCC(C)NC(=O)C1c2cc(OC)c(OC)cc2C(=O)N(C)C1c1ccc(OC)cc1` (stereo unspecified), the z-score was 0.0855.

Consider `O=c1c2ccccc2cnn1-c1ccc(Cl)cc1`, for which the z-score is -0.0417.

Regarding `CCOC(=O)C1=C(C)Nc2ccccc2N=C1NC(=O)Cc1ccc(OC)cc1`, the z-score is -0.00752.

As to `Cc1cc(C)nc(NC(=O)c2ccc(C)c([N+](=O)[O-])c2)n1`, the z-score is -0.0674.

Consider `CSc1nc(N)nc(SCCS(=O)(=O)c2ccc(Cl)cc2)c1C#N`, for which the z-score was -0.35.

For `Cc1cc(C(=O)CSc2nnc(-c3ccc(F)cc3)o2)c(C)n1CC1COc2ccccc2O1` (stereo unspecified), the z-score is -0.115.

In turn, `O=C(CCc1ccccc1)NNC(=O)C1CCCCC1` returned a z-score of 0.0776.

`COc1ccc(NC(=O)CN2CCC(C)CC2)c([N+](=O)[O-])c1` returned a z-score of -0.201.

As for `CCOC(=O)C1CCCN(C(=O)CN2C(=O)COc3ccc(C(C)(C)C)cc32)C1` (stereo unspecified), the z-score was -1.06.

Turning to `CCN(c1ccccc1)S(=O)(=O)c1ccc(C(=O)OC(C)C(=O)NCCC2=CCCCC2)cc1` (stereo unspecified), the z-score was -0.089.

In turn, `O=C(Cn1cnc2ccccc21)N/N=C/c1ccccc1[N+](=O)[O-]` gave a z-score of -0.096.

`CC(=O)Nc1nnc(SCC(=O)NCCOc2ccccc2)s1` gave a z-score of 1.03.

`O=C(O)CC1S/C(=N/N=C/c2ccc(-c3ccc(Cl)cc3[N+](=O)[O-])o2)NC1=O` (stereo unspecified): the z-score stood at 0.0587.

`CCOC(=O)c1ccc(NC(=O)Cn2ncc(Cl)c(Cl)c2=O)cc1`: the z-score was -0.205.

Compound `O=C(COc1ccc(Cl)cc1)Nc1ncccn1` returned a z-score of 0.0854.

Regarding `Cc1nn(C)cc1/C=N/NC(=O)C(C)(C)Oc1ccc(Cl)cc1`, the z-score was -0.174.

In the case of `O=C(CSc1nnc(-c2ccccc2)c(-c2ccccc2)n1)Nc1ccc(Br)cn1`, the z-score was -0.0996.

Turning to `CSc1cccc(NC(=O)c2ccco2)c1`, the z-score is -0.693.

As to `Cc1ccc(-n2cc(C(=O)c3cc(Cl)ccc3O)cc(C#N)c2=O)cc1`, the z-score is -0.415.

As to `Cc1ccc(C(=O)N/C(=C/c2cccs2)C(=O)NCCc2c[nH]c3ccccc23)cc1`, the z-score was -0.137.

Turning to `CCC(=O)N1c2ccc(S(=O)(=O)CCC(=O)N3CCN(c4ccccc4)CC3)cc2CC1C` (stereo unspecified), the z-score is -0.0112.

For the compound `CCOC(=O)c1ccccc1NC(=O)CN(c1ccccc1OC)S(C)(=O)=O`, the z-score was -0.158.

On to `O=C1c2ccccc2C(Nc2ccccc2)N1c1ccc(Cl)cn1` (stereo unspecified), for which the z-score is -1.69.

As to `COc1ccc(Oc2ncc(CN3CCN(c4ccccc4)CC3)s2)cc1`, the z-score was 0.957.

As for `CC1(C)Cc2nc3sc4c(=O)n(CC(=O)NCc5ccccc5)cnc4c3cc2CO1`, the z-score is -0.0873.

The compound `Cc1cccc(C)c1NC(=O)C(NC(=O)c1ccccn1)c1ccc([N+](=O)[O-])cc1` (stereo unspecified) came in with a z-score of 2.97.

Compound `Cc1cc2ncn(-c3ncnc4sc5c(c34)CCCC5)c2cc1C` gave a z-score of 0.23.

Compound `Cc1cc(N/C=C2\CCCCC2=O)no1` showed a z-score of -1.13.

`CC(=O)Nc1ccc(C(=O)OCc2ccc(Br)cc2)cc1`: the z-score turned out to be 0.529.

For the compound `Cc1cc(NC(=O)COC(=O)c2n[nH]c3ccccc23)no1`, the z-score is 0.11.

For the compound `S=c1[nH]nc(-c2ccco2)n1/N=C/c1cccs1`, the z-score was -0.0217.

Take `CNc1ccc(Br)cc(C(=O)/C=C/c2cccc(OC)c2OC)c1=O`: the z-score was -0.222.

In the case of `Cn1c(SCC(=O)NC(c2ccccc2)c2ccccc2)nnc1-c1cccs1`, the z-score turned out to be 0.417.

In turn, `CC(C)(C)n1nnnc1C(c1cccc(C#N)c1)N1CCCCCC1` (stereo unspecified) yielded a z-score of -0.393.

The compound `CCN(CC)c1ccc(/C=N/NC(=S)NCc2ccco2)cc1` yielded a z-score of 0.137.

Take `Cc1ccc(NC(=O)c2nc[nH]c2C(=O)Nc2ccc(C)cc2)cc1`: the z-score is -0.0719.

`O=C(Nc1ccccc1)N1CCn2c1nc1ccccc12` gave a z-score of -0.491.

In the case of `CC(=O)Nc1ccccc1N(CC(O)Cn1c2ccccc2c2ccccc21)S(=O)(=O)c1ccc(C)cc1` (stereo unspecified), the z-score stood at 0.249.

As to `CCN(CC)N=Nc1[nH]nc2nc(C)cc(C)c12`, the z-score turned out to be 0.248.

`Cc1ccc2oc(=O)c3cnn(CC(=O)N(Cc4ccco4)C4CCCCC4)c3c2c1`: the z-score is -0.707.

With `COC(=O)CNC(c1ccccc1)c1cc(Br)ccc1NS(=O)(=O)c1ccccc1` (stereo unspecified), the z-score is -0.0772.

For `CCCC(C)c1nnc(NC(=O)c2cc(C(=O)OC)cc([N+](=O)[O-])c2)s1` (stereo unspecified), the z-score is -0.231.

The compound `Cc1ccc(-c2csc(NC(=S)NC(=O)/C=C/c3ccco3)n2)cc1` yielded a z-score of 0.239.

`Cc1cc(NC(=O)COn2nnc3ccccc32)no1` had a z-score of 0.234.

In the case of `COC(=O)c1ccc(C(=O)OC)c(NC(=O)CS(=O)(=O)Cc2ccccc2)c1`, the z-score was -0.0763.

In turn, `Cc1cc(N)n2ncc(-c3ccccc3)c2n1` showed a z-score of -0.0202.

With `Nc1nnc(SCC(=O)Nc2ccccc2N2CCOCC2)s1`, the z-score was -0.16.

In turn, `O=C(COc1ccc2ccccc2c1)N1CCCC1` yielded a z-score of 0.16.

`CCOc1ccccc1N1CCN(C(=O)c2ccccc2)CC1` registered a z-score of -1.51.

In the case of `O=C(C1CCCO1)N1CCN(C(=S)Nc2ccc(F)cc2)CC1` (stereo unspecified), the z-score was found to be 0.0278.

`O=C(NNC(=O)C1CC2CCC1C2)c1ccccc1` (stereo unspecified) gave a z-score of -0.631.

`COc1cccc(C(=O)Nc2ncc3c(n2)CC(C)CC3=O)c1` (stereo unspecified) yielded a z-score of -0.14.

`CCC(C)(C)NC(=O)CN(C(=O)CNS(=O)(=O)c1ccc(C)cc1)c1ccc2c(c1)OCCO2` returned a z-score of -0.235.

Turning to `CCc1cccc(NC(=O)NC2CCCCC2)c1`, the z-score is active: 4.38.

`O=C(NCC1CCCO1)c1ccc2c(=O)n(Cc3ccco3)c(SCC(=O)N3CCCC3)nc2c1` (stereo unspecified) had a z-score of -0.423.

`COc1ccc(/C(O)=C/Sc2nnc(Cc3ccccc3)o2)cc1` returned a z-score of 0.181.

`CCc1nnc(NS(=O)(=O)c2ccc(N=Cc3c(C)[nH]n(-c4ccc(C)c(C)c4)c3=O)cc2)s1` yielded a z-score of -0.299.

Consider `O=C(Nc1ccc2snnc2c1)N1CCN(c2ccccc2)CC1`, for which the z-score was -0.66.

In turn, `Cc1cccc(OCC(=O)OCC(=O)c2c(N)n(C)c(=O)n(C)c2=O)c1C` came in with a z-score of -0.0585.

`CCCCN=C1C([N+](=O)[O-])=CC=C2C1=NC1(CCCCC1)N2O` had a z-score of -0.972.

On to `Cc1ccc(NC(=O)C(C)Sc2nnc(-c3cccnc3)n2-c2ccccc2)cc1` (stereo unspecified), for which the z-score was 0.084.

Regarding `Cc1cccc(N2CCN(C(=O)c3ccccc3NC(=O)C3CCCCC3C(=O)O)CC2)c1` (stereo unspecified), the z-score amounted to 0.304.

Consider `CCC(=O)Nc1ccccc1C(=O)N1CCN(Cc2ccccc2)CC1`, for which the z-score came out at 0.946.

Consider `CC(=O)c1ccc(-n2c(-c3cc(-c4ccco4)[nH]n3)n[nH]c2=S)cc1`, for which the z-score is -0.412.

In turn, `CC1CCCCN1CCNC(=O)CN1C(=O)COc2ccccc21` (stereo unspecified) displayed a z-score of -0.467.

For the compound `CCn1cc(C(=O)NCCCN2CC(C)CC(C)C2)c(=O)c2cc(S(=O)(=O)N(C)C)ccc21` (stereo unspecified), the z-score is -0.0824.

For `COc1cc(C=Nc2c(C)cc(C)cc2C)ccc1OC(C)=O`, the z-score was 0.595.

Turning to `CCN(CC)S(=O)(=O)c1ccc2c(c1)nc(SCC(=O)N1CCOCC1)n2-c1ccccc1OC`, the z-score was -0.239.

`Cc1cc(C)n(CC(=O)n2nc(C)cc2C)n1` came in with a z-score of -0.108.

`Cc1ccc(C)n1CCN1CCN(CC(=O)Nc2cc(C(F)(F)F)ccc2Cl)CC1` gave a z-score of -0.38.

As to `CCc1cc2c(cc3c(=O)n(CC(=O)N4CCN(c5ccccn5)CC4)nc(CC)n32)s1`, the z-score is -0.884.

For the compound `COc1ccc(NC(=O)Cn2nnc(-c3ccccc3N)n2)cc1OC`, the z-score came out at 0.509.

Consider `CC(C)C(=O)Nc1ccccc1C(=O)N/N=C/c1ccc([N+](=O)[O-])cc1`, for which the z-score was -0.163.

Compound `S=c1[nH]nc(COc2ccc3c(c2)OCO3)n1-c1ccccc1` returned a z-score of 0.774.

Compound `Cc1nnc(-c2cnn(-c3ccccc3)c2N)n1Cc1cccc(C(F)(F)F)c1` gave a z-score of -0.0926.

`COc1nc(Oc2ccc(=O)n(C)n2)nc(N(C)C)n1` gave a z-score of -0.215.

Consider `CCCCNC(=O)CCSc1ccc(C)cc1`, for which the z-score is -0.0336.

With `Cc1onc(-c2ccccc2)c1C(=O)Nc1nc2c(s1)CCCC2`, the z-score was found to be 0.165.

Compound `Cc1ccc(S(=O)(=O)Nc2nc(C)cc(NCCN)n2)cc1` returned a z-score of 0.381.

On to `COC(=O)c1ccc(C)c(NC(=O)CCNC(=O)c2ccc([N+](=O)[O-])cc2)c1`, for which the z-score was -0.381.

`NS(=O)(=O)c1ccc(NC(=O)C2CCCN(S(=O)(=O)c3ccc(F)cc3)C2)cc1` (stereo unspecified) showed a z-score of 0.0325.

Turning to `CSc1ccccc1N1CCN(C(=O)Nc2ccc3c(c2)NC(=O)CO3)CC1`, the z-score is -0.216.

Turning to `CC(C)(CSc1nncn1N)NS(=O)(=O)c1ccc(Cl)cc1`, the z-score turned out to be 0.241.

Consider `Cc1nnc(NC(=O)CSc2nc3c(c(=O)n2C)SC(C)C3)s1` (stereo unspecified), for which the z-score amounted to 0.192.

`CCN(CC)C(=O)CSc1nnc(-c2ccc(S(=O)(=O)N3CCCC3)cc2)o1` yielded a z-score of -0.113.

Turning to `CCOC(=O)C1=NN(c2ccccc2)C2=NC(C)=C(C(=O)OC)C(c3cccs3)N12` (stereo unspecified), the z-score is -0.379.

`COc1ccc(C(=O)COC(=O)CNC(=O)C2CCCCC2)c(OC)c1` yielded a z-score of -0.0967.

`Cc1nn(-c2cccc(C(F)(F)F)c2)c(Cl)c1/C=N/Nc1cccc(C(=O)O)c1` returned a z-score of -0.615.

`O=C(CSc1nccn1-c1ncc(C(F)(F)F)cc1Cl)c1ccc(Cl)cc1` had a z-score of -0.0872.

On to `O=C(NC(=S)N1CCc2ccccc21)c1ccccc1Br`, for which the z-score is active: 11.2.

The compound `CC(=O)NC(=S)Nc1ccc(NC(=O)c2cccs2)cc1` had a z-score of -0.0605.

`CCOC(=O)C(O)(C1C(=O)CC(C)(C)CC1=O)C(F)(F)F` (stereo unspecified): the z-score is -0.123.

Regarding `CC1CC(C)(C)NC(C)c2ccccc21` (stereo unspecified), the z-score is -0.506.

Turning to `Cc1ccc(S(=O)(=O)N2CCOCC2)cc1C(=O)OCC(=O)Nc1ccc2c(c1)OCO2`, the z-score was -0.412.

`COC(=O)C1=C(CSc2nncn2C)NC(=O)NC1c1ccc(F)cc1` (stereo unspecified) yielded a z-score of 0.135.

Take `CCOc1cc(C2NN=C(c3ccccc3)S2)ccc1OCc1ccccc1Cl` (stereo unspecified): the z-score amounted to 0.78.

Compound `CCOC(=O)N1CCC(c2cc(=O)n3[nH]c(C)c(-c4ccc(F)cc4)c3n2)CC1` gave a z-score of -1.32.

`CC(C)CC(=O)N/C(N)=N/c1nc2ccccc2s1` showed a z-score of -0.563.

On to `CC1c2[nH]c3ccccc3c2CCN1S(C)(=O)=O` (stereo unspecified), for which the z-score turned out to be 0.542.

With `COc1cccc(-c2cc(C(=O)Nc3cnn(Cc4ccccc4C)c3)no2)c1`, the z-score came out at 0.0739.

In turn, `CNS(=O)(=O)c1cccc(C(=O)OCC(=O)N2CCc3ccccc3C2)c1` displayed a z-score of 0.0659.
